Blank lines part the entries; values can stand above or below the compound they belong to.
Key:
[1] = target: T1, vitamin D receptor (VDR) (Homo sapiens, UniProt P11473); test: Vitamin D-inducible growth hormone production in COS-1 cells co-transfected with pSG5-hVDR1/3 and p(CT4)4TKGH; settings: for Total GH Production: averages of duplicate determinations
T1 sequence (P11473 1-427): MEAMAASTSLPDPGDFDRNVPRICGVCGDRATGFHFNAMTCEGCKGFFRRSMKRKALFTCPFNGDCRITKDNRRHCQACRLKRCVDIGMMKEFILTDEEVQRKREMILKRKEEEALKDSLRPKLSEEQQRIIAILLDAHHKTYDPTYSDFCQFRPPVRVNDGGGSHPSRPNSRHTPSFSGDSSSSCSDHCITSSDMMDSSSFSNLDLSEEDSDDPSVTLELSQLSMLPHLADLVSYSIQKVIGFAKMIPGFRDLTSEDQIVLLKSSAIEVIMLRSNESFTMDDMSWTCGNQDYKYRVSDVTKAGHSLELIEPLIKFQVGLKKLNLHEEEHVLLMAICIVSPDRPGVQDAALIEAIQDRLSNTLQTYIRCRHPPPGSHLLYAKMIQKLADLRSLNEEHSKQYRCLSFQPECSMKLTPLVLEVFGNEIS

[2] = test system: human MCF-7 cancer cell lines; settings: for overall interaction with 1α,24-dihydroxyvitamin D2 in inhibiting growth of human breast cancer cells: summary statement of the description

activity in GH reporter system compared with 25-OH-D3 [1]: significantly more activity | Total GH Production ([1]; molar concentration 1 × 10^−7): 1300 ng/mL | Total GH Production ([1]; molar concentration 1 × 10^−8): 1100 ng/mL | Net vitamin D inducible GH-production ([1]; molar concentration 1 × 10^−9): 36 ng/mL | Total GH Production ([1]; molar concentration 1 × 10^−9): 80 ng/mL
SMILES: C=C1/C(=C\C=C2/CCC[C@]3(C)[C@@H]([C@H](C)/C=C/[C@](C)(O)C(C)C)CC[C@@H]23)C[C@@H](O)C[C@@H]1O [1α,24(R)—(OH)2D2, 1α,24(R)-dihydroxy-vitamin D2]

activity in GH reporter system compared with 1α,25-(OH)2D3 [1]: nearly the same activity | activity in GH reporter system compared with 25-OH-D3 [1]: significantly more activity
SMILES: C=C1/C(=C\C=C2/CCC[C@]3(C)[C@@H]([C@H](C)/C=C/[C@@](C)(O)C(C)C)CC[C@@H]23)C[C@@H](O)C[C@@H]1O [1α,24(S)—(OH)2D2, 1α,24(S)-dihydroxyvitamin D2]

SMILES: O=c1[nH]cc(F)c(=O)[nH]1 [5-fluorouracil]
overall interaction with 1α,24-dihydroxyvitamin D2 in inhibiting growth of human breast cancer cells [2]: additively inhibit

SMILES: C=C1CC[C@H](O)C/C1=C/C=C1\CCC[C@]2(C)[C@@H]([C@H](C)CCCC(C)(C)O)CC[C@@H]12 [25-OH—D3, reference compound]
Total GH Production ([1]; molar concentration 1 × 10^−6): 1100 ng/mL

SMILES: CS(=O)(=O)OCCCCOS(C)(=O)=O [busulfan]
interaction with 1,24(OH)2D2, growth inhibition (FIG. 20) ([2]; busulfan 100 μM with 0.1 nM 1,24(OH)2D2): mild synergistic growth inhibition | overall interaction with 1α,24-dihydroxyvitamin D2 in inhibiting growth of human breast cancer cells [2]: additively inhibit

SMILES: N.N.O=C([O-])C1(C(=O)[O-])CCC1.[Pt+2] [carboplatin]
overall interaction with 1α,24-dihydroxyvitamin D2 in inhibiting growth of human breast cancer cells [2]: additively inhibit

SMILES: O=C(O)CCCc1ccc(N(CCCl)CCCl)cc1 [chlorambucil]
interaction with 1,24(OH)2D2, growth inhibition (FIG. 17) ([2]; chlorambucil in various concentrations with 0.1 nM 1α,24-dihydroxyvitamin D2): antagonistic to mild additive growth inhibition

SMILES: N.N.[Cl][Pt][Cl] [cisplatin]
overall interaction with 1α,24-dihydroxyvitamin D2 in inhibiting growth of human breast cancer cells [2]: synergistically inhibits

SMILES: COc1cccc2c1C(=O)c1c(O)c3c(c(O)c1C2=O)C[C@@](O)(C(=O)CO)C[C@@H]3O[C@H]1C[C@H](N)[C@H](O)[C@H](C)O1 [doxorubicin]
interaction with 1,24(OH)2D2, growth inhibition (FIG. 9) ([2]; doxorubicin 0.001 μM, 0.01 μM, 0.1 μM, 1 μM, 10 μM and 100 μM with 1 nM 1,24(OH)2D2): synergistic growth inhibition | interaction with 1,24(OH)2D2, growth inhibition (FIG. 10) ([2]; doxorubicin 0.01 μM, 0.01 μM, 1 μM, 10 μM and 100 μM with 10 nM 1,24(OH)2D2): synergistic growth inhibition | interaction with 1,24(OH)2D2, growth inhibition (FIG. 7) ([2]; doxorubicin 0.01 μM, 0.1 μM, 1 μM, 10 μM and 100 μM with 0.01 nM 1,24(OH)2D2): synergistic growth inhibition | interaction with 1,24(OH)2D2, growth inhibition (FIG. 8) ([2]; doxorubicin 1 μM, 10 μM and 100 μM with 0.1 nM 1,24(OH)2D2): synergistic growth inhibition | interaction with 1,24(OH)2D2, isobologram (FIG. 6) ([2]; doxorubicin about 0 to 0.15 μM with 1,24(OH)2D2 of various concentrations): synergistic effect | overall interaction with 1α,24-dihydroxyvitamin D2 in inhibiting growth of human breast cancer cells [2]: synergistically inhibits

SMILES: COc1cc([C@@H]2c3cc4c(cc3[C@@H](O[C@@H]3O[C@@H]5CO[C@@H](C)O[C@H]5[C@H](O)[C@H]3O)[C@H]3COC(=O)[C@H]23)OCO4)cc(OC)c1O [etoposide]
interaction with 1,24(OH)2D2, isobologram (FIG. 3) [2]: additive or mild synergistic effect | interaction with 1,24(OH)2D2, growth inhibition (FIG. 4) ([2]; etoposide 0.1 μM, 1 μM, 10 μM and 100 μM with 0.1 nM 1,24(OH)2D2): additive to mild synergistic growth inhibition | overall interaction with 1α,24-dihydroxyvitamin D2 in inhibiting growth of human breast cancer cells [2]: additively inhibit

SMILES: CC(=O)O[C@H]1C(=O)[C@@]2(C)[C@H]([C@H](OC(=O)c3ccccc3)[C@]3(O)C[C@H](OC(=O)[C@H](O)[C@@H](NC(=O)c4ccccc4)c4ccccc4)C(C)=C1C3(C)C)[C@]1(OC(C)=O)CO[C@@H]1C[C@@H]2O [paclitaxel]
overall interaction with 1α,24-dihydroxyvitamin D2 in inhibiting growth of human breast cancer cells [2]: synergistically inhibits

SMILES: CC/C(=C(\c1ccccc1)c1ccc(OCCN(C)C)cc1)c1ccccc1 [tamoxifen]
overall interaction with 1α,24-dihydroxyvitamin D2 in inhibiting growth of human breast cancer cells [2]: additively inhibit | interaction with 1,24(OH)2D2, growth inhibition (FIG. 13) ([2]; tamoxifen 10 μM and 100 μM with 0.01 nM 1,24(OH)2D2): additive to mild synergistic growth inhibition | interaction with 1,24(OH)2D2, growth inhibition (FIG. 14) ([2]; tamoxifen 10 μM and 100 μM with 0.1 nM 1,24(OH)2D2): additive to mild synergistic growth inhibition

— patent US7094775B2, “Method of treating breast cancer using a combination of vitamin D analogues and other agents” (priority 2004, dated 2006)
